Experimental data published in PubChem BioAssay AID686978 (National Center for Advancing Translational Sciences (NCATS), 2013).
The whole screen tested about 420,000 compounds, of which about 64,000 (15%) were called active. This list was built around the results that the source calls inconclusive (neither active nor inactive); the mix of calls is not that of the screen. Calls follow the shape of the dose curve; as a rule, active = well fitted inhibition curve with a large enough effect; inconclusive = small, poorly fitted or top-dose-only effect; inactive = flat fitted curve, though single readings scatter. Potencies of inconclusive entries are left out as doubtful fits.

Test: qHTS for Inhibitors of human tyrosyl-DNA phosphodiesterase 1 (TDP1): qHTS in cells in absence of CPT; also: nearly all actives have a fitted effect of over 55% in size
Conditions: DT40 Tdp1-/- hTDP1 cells, no CPT, ATP luminescence, 48 h; activity change, negative = growth inhibition: at 46.2 µM (top of the series) unless noted
Procedure, shortened: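 Chicken DT40 Tdp1-/- cells stably complemented with human TDP1 were seeded at 400 cells/well with DMSO in place of 20 nM camptothecin. After compound pinning, cells grew at least 48 hr at 37 °C; viability read by CellTiter-Glo luminescence.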
% is scaled to controls: 0 for no effect and ±100 for the full control effect; potency is read from the fitted curve at half-maximal effect; tags tell the direction and shape of the fitted curve.

| Compound | activity change, negative = growth inhibition | Potency |
| --- | --- | --- |
| Cc1ccc(C2(C)NC(=O)N(CC(=O)NCc3cccc(Cl)c3)C2=O)cc1 (configuration not stated) | inactive: 6.92% |  |
| CC(NCc1cccc(S(=O)(=O)N(C)C)c1)c1ccc(F)cc1 (configuration not stated) | inactive: 3.19% |  |
| Cc1ccccc1Nc1nnc(C)c(=O)[nH]1 | inactive: -2.18% |  |
| COc1ccc(CCN(C)CCC(=O)Nc2ccc(C)cc2)cc1OC |  | inconclusive [inhibitor, partial curve, poor fit] |
| CCOC(=O)c1c(NC(=O)COC(=O)c2cc(OC)c(OC)cc2[N+](=O)[O-])sc(C)c1CC |  | active: 14.6 µM |
| O=C(Nc1ccc(F)cc1)C(c1ccccc1OC(F)(F)F)N1CCN(C(=O)c2ccco2)CC1 (configuration not stated) |  | inconclusive [inhibitor, single point] |
| O=C(O)c1cccc(NC(=O)c2cc3cc(Br)cc(Br)c3oc2=O)c1 | inactive: -1.74% |  |
| Cc1cc(C(=O)NNC(=S)NC(C)c2ccccc2)cs1 (configuration not stated) |  | inconclusive [inhibitor, single point] |
| O=C(NC(c1ccc(Cl)cc1)c1cccnc1)C1CCN(CCOc2ccc(Cl)cc2Cl)CC1 (configuration not stated) |  | inconclusive [inhibitor, single point] |
| CCCCN1CCCc2cc(CN(CCCN3CCOCC3)C(=O)Nc3ccc(CC)cc3)ccc21 |  | active: 20.6 µM |
| O=C(Nc1ccc(Br)cc1)/C(=C/c1cccc([N+](=O)[O-])c1)NC(=O)C1CCCCC1 |  | inconclusive [inhibitor, single point] |
| O=C(CSc1nc(-c2ccco2)cc(C(F)(F)F)n1)NCCN1CCOCC1 |  | inconclusive [inhibitor, single point] |
| Cc1nn(Cc2noc(C(=O)NCc3ccc4c(c3)OCO4)n2)c(C)c1Br | inactive: -28.6% |  |
| CNc1nc(Cl)c(SC)c(NCc2cccc(OC)c2)n1 |  | active: 23.1 µM |
| Cc1nc(-c2ccccc2)nc2[nH]c(=O)n(-c3ccccc3)c(=O)c12 |  | inconclusive [inhibitor, single point] |
| COc1ccc(S(=O)(=O)NCCc2sc3nc(-c4ccc(C)cc4)nn3c2C)cc1C |  | inconclusive [inhibitor, single point] |
| COCCN(Cc1ccccc1)C(=O)c1cccc(S(=O)(=O)N2CCN(c3ccccc3)CC2)c1 |  | active: 16.4 µM |
| CC(C)NC(=S)NN=C1CCCCCCCCCCC1 |  | active: 13 µM |
| CCOC(=O)c1cc(-c2ccccc2)n(CCC(=O)NCCc2cccc(C)c2)c1C |  | inconclusive [inhibitor, single point] |
| CCCCNc1oc(-c2ccc(COc3ccccc3C)o2)nc1C#N |  | inconclusive [inhibitor, single point] |
| CC1(C)Cc2cccc(OCC(=O)NCc3ccc(F)cc3)c2O1 |  | inconclusive [inhibitor, single point] |
| COC(=O)c1ccc(-c2nc(-c3ccc(Br)o3)no2)cc1 | inactive: -7.46% |  |
| CN(Cc1ccccc1)C(=O)C(C(=O)c1ccc(F)cc1)n1cc(Cl)ccc1=O (configuration not stated) | inactive: -21.8% |  |
| CC(=O)c1cccc(NC(=O)Cc2ccc(NC(=O)N3CCCCc4ccccc43)cc2)c1 |  | active: 16.4 µM |
| CC(=O)Nc1ccc(/C=C(\C#N)C(=O)NC2CCCCC2)cc1 |  | inconclusive [inhibitor, single point] |
| COc1ccc(S(=O)(=O)N(CC(=O)NCCSc2ccccc2)c2ccc(C)cc2)cc1 |  | active: 13 µM |

| Compound | activity change, negative = growth inhibition | Potency |
| --- | --- | --- |
| CCc1ccc(/C=C2/SC(N3CCOCC3)=NC2=O)cc1 |  | inconclusive [inhibitor, single point] |
| Cc1csc(Nc2cccc3ccccc23)n1 | inactive: -22.7% |  |
| CCN(C(=O)CCc1nc(-c2ccc(C)cc2)no1)c1cccc(Cl)c1 |  | inconclusive [inhibitor, single point] |
| OCCN1CCN(c2cc(-c3ccccc3)c3ccccc3n2)CC1 |  | inconclusive [inhibitor, single point] |
| COc1ccc(CC(=O)OCc2cc3ccc(C)cc3[nH]c2=O)cc1 |  | inconclusive [inhibitor, single point] |
| O=C1CCSc2ccc(Cl)cc2N1Cc1ccc(Cl)cc1 |  | active: 29.1 µM |
| CN(C)c1ncc2nc(-c3ccc(F)cc3)c(=O)n(C)c2n1 | inactive: 4.75% |  |
| Cc1ccc(-c2nc(NC(=O)CSc3ccc4ccccc4n3)ns2)cc1 |  | inconclusive [inhibitor, partial curve] |
| S=c1[nH]nc(-c2cccc(Cl)c2)n1CCN1CCCCC1 | inactive: -16.3% |  |
| CCCn1c(=S)[nH]c2cc(C(=O)N3CCN(C(=O)OCC)CC3)ccc2c1=O | inactive: -4.54% |  |
| CCCCN1C(=O)C2C3C=CC(C2C1=O)C1C2C(=O)N(CCCC)C(=O)C2C31 (configuration not stated) |  | inconclusive [inhibitor, single point] |
| O=C(NNS(=O)(=O)c1ccccc1[N+](=O)[O-])c1cccnc1 |  | inconclusive [inhibitor, single point] |
| O=[N+]([O-])c1cc(C(F)(F)F)ccc1N1CCC(O)CC1 | inactive: -20.4% |  |
| NC(c1csc(Nc2ccc(C(=O)c3ccccc3)cc2)n1)C1CCCCC1 (configuration not stated) |  | inconclusive [inhibitor, single point] |
| CCOC(=O)c1[nH]c2ccc(OCC)cc2c1NC(=O)CN1CCC2(CC1)OCCO2 |  | inconclusive [inhibitor, single point] |
| COC(=O)c1cc2sccc2n1CC(=O)Nc1ccc(C)cc1C | inactive: -23.1% |  |
| Cc1ccc(N(CC(=O)NCc2ccccc2Cl)S(=O)(=O)c2c(C)noc2C)cc1 |  | inconclusive [inhibitor, single point] |
| CCCCOC(=O)c1cc(=O)[nH]c2ccc(C)cc12 | inactive: -20.7% |  |
| CC(=O)c1c(O)cc(=O)n(-c2ccccc2)c1-c1ccc(C)cc1 | inactive: -5.82% |  |
| CCCCCCCCCCCC(=O)NC(C(=O)OCC)C(O)c1cccc([N+](=O)[O-])c1 (configuration not stated) |  | active: 23.1 µM |
| CC(=O)c1cnn(-c2ccccc2)c1C | inactive: 5.84% |  |
| COc1ccc(C(C)=O)cc1CSc1nnc(C)s1 | inactive: -8.44% |  |
| COc1cc(OC)nc(/N=C/N(C)C)n1 | inactive: -3.18% |  |
| CNC(=S)N(Cc1cc2cc(C)cc(C)c2[nH]c1=O)C1CCCC1 | inconclusive: -32.3% [inhibitor] |  |
| COc1cc2c(cc1OC)C(COc1ccc3c(C)cc(=O)oc3c1)N(C(=O)Cc1ccccc1)CC2 (configuration not stated) |  | inconclusive [inhibitor, partial curve] |
| O=[N+]([O-])c1ccc(Cl)c(-c2ccc(/C=N/n3cnnc3)o2)c1 | inactive: -19.7% |  |

| Compound | activity change, negative = growth inhibition | Potency |
| --- | --- | --- |
| O=C(COc1ccc(Cl)cc1)Nc1ccc2c(c1)OCO2 | inactive: -21.7% |  |
| COc1cc([N+](=O)[O-])ccc1NC(=O)C[n+]1ccccc1 | inactive: -7.42% |  |
| O=C(NCCN1CCCCC1)c1c(O)c2ccccc2[nH]c1=O |  | inconclusive [inhibitor, full curve, poor fit] |
| CC(C)(C)C(=O)c1cnc(Nc2ccccc2Cl)s1 | inactive: -26.3% |  |
| CCN(Cc1ccccc1)C(=O)c1cccnc1 | inconclusive: -24.6% [inhibitor] |  |
| CCC(=O)N1CCC2(CC1)Oc1ccc(Cl)cc1C(=O)C21CC(c2ccccc2)=NO1 (configuration not stated) |  | active: 25.9 µM |
| O=C(N[C@@H](Cc1ccccc1)C(=O)N1CCN(S(=O)(=O)c2ccccc2F)CC1)c1ccco1 |  | inconclusive [inhibitor, single point] |
| COc1ccccc1CNc1nc(NCc2ccc3occc3c2)c2sccc2n1 |  | active: 20.6 µM |
| COc1ccc(S(=O)(=O)N2CCN(CC(=O)N3CCc4ccccc4C3)CC2)cc1OC |  | inconclusive [inhibitor, partial curve] |
| O=C(c1ccc(Cl)cc1)N1C2C=CC(C2)C1(C(F)(F)F)C(F)(F)F (configuration not stated) |  | inconclusive [inhibitor, single point] |
| Cc1ccccc1-n1c(C)nnc1SCC(=O)NCC1CCCO1 (configuration not stated) | inactive: 4.64% |  |
| O=C1OCCC1Sc1nnc(-c2ccc(F)cc2)n1Cc1ccccc1 (configuration not stated) | inactive: -1.04% |  |
| Cc1ccc2c(c1)[C@H]1[C@H](CO2)[C@H](c2ccccc2)[C@]2(C)C(=O)N(C)CC(=O)N12 | inactive: -14.8% |  |
| N#Cc1nc(-c2ccccc2Cl)oc1NCc1ccco1 |  | inconclusive [inhibitor, single point] |
| CCc1cc(C(=O)N2CCCC(C(=O)c3cccc(OC(C)C)c3)C2)n(C)n1 (configuration not stated) |  | active: 18.4 µM |
| CC(C)C[C@H](N)c1nnc(S(=O)(=O)Cc2ccc(F)cc2)o1 |  | active: 2.06 µM |
| CC1CCN(c2oc(Cc3cccc4ccccc34)nc2C#N)CC1 |  | inconclusive [inhibitor, partial curve, poor fit] |
| O=C(COC(=O)/C=C/c1ccc(S(=O)(=O)N2CCCCCC2)cc1)NCc1ccccc1Cl |  | inconclusive [inhibitor, single point] |
| COCCCn1c(SCC(=O)Nc2oc(C)c3c(C)n[nH]c(=O)c23)nc2sc3c(c2c1=O)CCC3 | inactive: -22.9% |  |
| Cc1ccc(C)c2nc(Cl)c(C3NC(=O)c4ccccc4N3)cc12 (configuration not stated) |  | active: 16.4 µM |
| COc1cccc(CNC(=O)c2ccc3nc(-c4ccccc4)c(-c4ccccc4)nc3c2)c1OC |  | inconclusive [inhibitor, single point] |
| CCC1CCCCN1C(=O)CSc1nnc(-c2c[nH]c3ccccc23)o1 (configuration not stated) |  | inconclusive [inhibitor, single point] |
| COc1ccccc1C1CC(=O)Nc2cc(C)c(C)cc21 (configuration not stated) |  | active: 8.2 µM |
| CCOc1ccccc1C(=O)NC1(C(F)(F)F)C(=O)Nc2c1c(=O)[nH]c(=O)n2-c1ccccc1 (configuration not stated) | inactive: 10.4% |  |
| N#Cc1c(-c2ccco2)cc(-c2ccc(F)cc2)nc1N |  | active: 18.4 µM |
